Source: the supplement of paper PMC8728848
The other results are listed elsewhere or left out.

Tests used:
Experiment in all cases: glycan array binding signal (z-score within array); higher = stronger binding
Conditions in all cases: glycan notation: IUPAC condensed, linker removed
[1] = molecular target: Neu5Ac(a2-6)Gal(b1-4)GlcNAc(b1-2)Man(a1-3)[Neu5Ac(a2-3)Gal(b1-4)GlcNAc(b1-2)Man(a1-6)]Man(b1-4)GlcNAc(b1-4)GlcNAc
Procedure, shortened: (§1)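 Glycan array data were curated from 3228 arrays in the Consortium for Functional Glycomics database and kept only where the protein sequence was available. Glycan names were converted to IUPAC-condensed notation, and columns mapping to the same glycan were averaged. The binding signal is a within-array Z-score, averaged across arrays of the same protein sequence at different concentrations or buffers and across linkers. Negative Z-scores can be read as non-binding.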

[2] = molecular target: Neu5Ac(a2-6)Gal(b1-4)GlcNAc(b1-2)Man(a1-3)[Neu5Ac(a2-6)Gal(b1-4)GlcNAc(b1-2)Man(a1-6)]Man(b1-4)GlcNAc(b1-4)GlcNAc
Procedure, shortened: as §1

[3] = molecular target: Neu5Ac(a2-6)Gal(b1-4)GlcNAc(b1-2)Man(a1-3)[Neu5Ac(a2-6)Gal(b1-4)GlcNAc(b1-2)Man(a1-6)]Man(b1-4)GlcNAc(b1-4)[Fuc(a1-6)]GlcNAc
Procedure, shortened: as §1

[4] = molecular target: Neu5Ac(a2-6)Gal(b1-4)GlcNAc(b1-2)Man(a1-6)Man(b1-4)GlcNAc(b1-4)GlcNAc
Procedure, shortened: as §1

[5] = molecular target: Neu5Ac(a2-6)Gal(b1-4)GlcNAc(b1-2)Man(a1-6)[Gal(b1-4)GlcNAc(b1-2)Man(a1-3)]Man(b1-4)GlcNAc(b1-4)GlcNAc
Procedure, shortened: as §1

[6] = molecular target: Neu5Ac(a2-6)Gal(b1-4)GlcNAc(b1-2)Man(a1-6)[GlcNAc(b1-2)Man(a1-3)]Man(b1-4)GlcNAc(b1-4)GlcNAc
Procedure, shortened: as §1

[7] = molecular target: Neu5Ac(a2-6)Gal(b1-4)GlcNAc(b1-2)Man(a1-6)[Man(a1-3)]Man(b1-4)GlcNAc(b1-4)GlcNAc
Procedure, shortened: as §1

[8] = molecular target: Neu5Ac(a2-6)Gal(b1-4)GlcNAc(b1-2)[Neu5Ac(a2-6)Gal(b1-4)GlcNAc(b1-4)]Man(a1-3)[GlcNAc(b1-4)][Neu5Ac(a2-6)Gal(b1-4)GlcNAc(b1-2)[Neu5Ac(a2-6)Gal(b1-4)GlcNAc(b1-6)]Man(a1-6)]Man(b1-4)GlcNAc(b1-4)GlcNAc
Procedure, shortened: as §1

[9] = molecular target: Neu5Ac(a2-6)Gal(b1-4)GlcNAc(b1-2)[Neu5Ac(a2-6)Gal(b1-4)GlcNAc(b1-4)]Man(a1-3)[GlcNAc(b1-4)][Neu5Ac(a2-6)Gal(b1-4)GlcNAc(b1-4)Man(a1-6)]Man(b1-4)GlcNAc(b1-4)GlcNAc
Procedure, shortened: as §1

[10] = molecular target: Neu5Ac(a2-6)Gal(b1-4)GlcNAc(b1-2)[Neu5Ac(a2-6)Gal(b1-4)GlcNAc(b1-6)]Man(a1-6)[Neu5Ac(a2-6)Gal(b1-4)GlcNAc(b1-2)Man(a1-3)][GlcNAc(b1-4)]Man(b1-4)GlcNAc(b1-4)GlcNAc
Procedure, shortened: as §1

[11] = molecular target: Neu5Ac(a2-6)Gal(b1-4)GlcNAc(b1-3)Gal(b1-3)GlcNAc
Procedure, shortened: as §1

[12] = molecular target: Neu5Ac(a2-6)Gal(b1-4)GlcNAc(b1-3)Gal(b1-4)GlcNAc
Procedure, shortened: as §1

[13] = molecular target: Neu5Ac(a2-6)Gal(b1-4)GlcNAc(b1-3)Gal(b1-4)GlcNAc(b1-2)Man(a1-3)[Neu5Ac(a2-6)Gal(b1-4)GlcNAc(b1-3)Gal(b1-4)GlcNAc(b1-2)Man(a1-6)]GalNAc
Procedure, shortened: as §1

[14] = molecular target: Neu5Ac(a2-6)Gal(b1-4)GlcNAc(b1-3)Gal(b1-4)GlcNAc(b1-3)Gal(b1-4)GlcNAc
Procedure, shortened: as §1

[15] = molecular target: Neu5Ac(a2-6)Gal(b1-4)GlcNAc(b1-3)Gal(b1-4)GlcNAc(b1-3)Gal(b1-4)GlcNAc(b1-2)Man(a1-3)[Neu5Ac(a2-6)Gal(b1-4)GlcNAc(b1-3)Gal(b1-4)GlcNAc(b1-3)Gal(b1-4)GlcNAc(b1-2)Man(a1-6)]GalNAc
Procedure, shortened: as §1

[16] = molecular target: Neu5Ac(a2-6)Gal(b1-4)GlcNAc(b1-3)Gal(b1-4)GlcNAc(b1-3)GalNAc
Procedure, shortened: as §1

[17] = molecular target: Neu5Ac(a2-6)Gal(b1-4)GlcNAc(b1-3)Gal(b1-4)GlcNAc(b1-3)[Neu5Ac(a2-6)Gal(b1-4)GlcNAc(b1-3)Gal(b1-4)GlcNAc(b1-6)]GalNAc
Procedure, shortened: as §1

[18] = molecular target: Neu5Ac(a2-6)Gal(b1-4)GlcNAc(b1-3)Gal(b1-4)GlcNAc(b1-6)[Gal(b1-3)]GalNAc
Procedure, shortened: as §1

[19] = molecular target: Neu5Ac(a2-6)Gal(b1-4)GlcNAc(b1-3)Gal(b1-4)[Fuc(a1-3)]GlcNAc(b1-3)Gal(b1-4)[Fuc(a1-3)]GlcNAc
Procedure, shortened: as §1

[20] = molecular target: Neu5Ac(a2-6)Gal(b1-4)GlcNAc(b1-3)GalNAc
Procedure, shortened: as §1

[21] = molecular target: Neu5Ac(a2-6)Gal(b1-4)GlcNAc(b1-3)[Neu5Ac(a2-6)Gal(b1-4)GlcNAc(b1-6)]GalNAc
Procedure, shortened: as §1

[22] = molecular target: Neu5Ac(a2-6)Gal(b1-4)GlcNAc(b1-6)GalNAc
Procedure, shortened: as §1

[23] = molecular target: Neu5Ac(a2-6)Gal(b1-4)GlcNAc(b1-6)[Gal(b1-3)GlcNAc(b1-3)]Gal(b1-4)Glc
Procedure, shortened: as §1

[24] = molecular target: Neu5Ac(a2-6)Gal(b1-4)GlcNAc(b1-6)[Gal(b1-3)]GalNAc
Procedure, shortened: as §1

[25] = molecular target: Neu5Ac(a2-6)Gal(b1-4)GlcNAc6S
Procedure, shortened: as §1

Neu5Ac(a2-6)GalNAc = molecular target: Neu5Ac(a2-6)GalNAc
Procedure, shortened: as §1

[26] = molecular target: Neu5Ac(a2-6)GalNAc(b1-4)GlcNAc
Procedure, shortened: as §1

[27] = molecular target: Neu5Ac(a2-6)GalNAc(b1-4)GlcNAc6S
Procedure, shortened: as §1

[28] = molecular target: Neu5Ac(a2-6)GlcNAc(b1-4)GlcNAc
Procedure, shortened: as §1

[29] = molecular target: Neu5Ac(a2-6)GlcNAc(b1-4)GlcNAc(b1-4)GlcNAc
Procedure, shortened: as §1

B1: MPA (Maclura pomifera), P18674 (protein)
chain: GVTFDDGAYTGIREINFEYNSETAIGGLRVTYDLNGMPFVAEDHKSFITGFKPVKISLEFPSEYIVEVSGYVGKVEGYTVIRSLTFKTNKQTYGPYGVTNGTPFSLPIENGLIVGFKGSIGYWLDYFSIYLSL
- glycan array binding signal (z-score) [1]: -0.227
- glycan array binding signal (z-score) [2]: -0.188
- glycan array binding signal (z-score) [3]: -0.216
- glycan array binding signal (z-score) [4]: -0.239
- glycan array binding signal (z-score) [5]: -0.154
- glycan array binding signal (z-score) [6]: -0.173
- glycan array binding signal (z-score) [7]: -0.337
- glycan array binding signal (z-score) [8]: -0.236
- glycan array binding signal (z-score) [9]: -0.218
- glycan array binding signal (z-score) [10]: -0.375
- glycan array binding signal (z-score) [11]: -0.29
- glycan array binding signal (z-score) [12]: -0.241
- glycan array binding signal (z-score) [13]: 0.484
- glycan array binding signal (z-score) [14]: -0.233
- glycan array binding signal (z-score) [15]: 6.71
- glycan array binding signal (z-score) [16]: -0.267
- glycan array binding signal (z-score) [17]: 1.31
- glycan array binding signal (z-score) [18]: -0.047
- glycan array binding signal (z-score) [19]: 0.054
- glycan array binding signal (z-score) [20]: -0.115
- glycan array binding signal (z-score) [21]: -0.252
- glycan array binding signal (z-score) [22]: -0.13
- glycan array binding signal (z-score) [23]: -0.184
- glycan array binding signal (z-score) [24]: 0.018
- glycan array binding signal (z-score) [25]: -0.25
- glycan array binding signal (z-score) (Neu5Ac(a2-6)GalNAc): -0.268
- glycan array binding signal (z-score) [26]: -0.246
- glycan array binding signal (z-score) [27]: -0.275
- glycan array binding signal (z-score) [28]: -0.39
- glycan array binding signal (z-score) [29]: -0.276
